In PubChem BioAssay AID1508624 (National Center for Advancing Translational Sciences (NCATS), 2021):
The campaign covered roughly 48,000 compounds. About 120 (0.25%) were called active. Not shown: some 4% with an inconclusive outcome. Calls come from the whole dose curve; as a rule, active = well fitted activation curve with a large enough effect; inconclusive = small, poorly fitted or top-dose-only effect, or another doubt; inactive = no such curve, though single readings can be large or run the other way. This is one part of the list.

Assay: Primary qHTS for Identification of Small Molecule Activators of Huntingtin-Antisense Promoter Activity; note: nearly all actives have a fitted effect of over 55% in size
Settings: HEK293 HTT-AS promoter firefly luciferase reporter (activity 0% = vehicle and -100% = no light), 24 h; series mostly up to 57.5 µM; activity change, positive = activation: at the top concentration
Method in brief: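 HEK293 Fluc reporter, 2,500 cells/well, 24 h pre-culture; cpds up to 57.5 uM final, 24 h 37 degrees C; Dual-Glo, 10 min RT; normalized vehicle = 0%, zero RLU = -100%.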
Potency is the fitted concentration of half-maximal effect.

SMILES	activity change, positive = activation	Potency
Cc1nnc(N2CCCC(C(=O)Nc3cccc(C(F)(F)F)c3)C2)c2nn(-c3ccccc3)c(C)c12 (stereo not given)	inactive: -44.1%	–
O=C(Nc1cccc(Cl)c1)c1cc(-c2ccc3c(c2)OCCO3)on1	inactive: -32%	–
Cc1cccc(C(=O)Nc2cccc(OCc3cc(=O)n4cccc(C)c4n3)c2)c1	inactive: 0.312%	–
Cc1cccc(N(C)C(CNS(=O)(=O)c2ccccc2)c2ccccc2)c1 (stereo not given)	inactive: -30.5%	–
CCN(CC)CCNC(=O)C(=O)NCC(c1cccnc1)N1CCN(c2ccccc2)CC1 (stereo not given)	inactive: -19.8%	–
O=C(O)CN1C(=O)c2cccc3cccc(c23)C1=O	inactive: -0.109%	–
Cc1cccc(-n2c(SCc3nc(-c4ccccc4C)no3)nnc2-c2ccccc2)c1	inactive: -17.1%	–
FC(F)(F)C(Cl)Br (stereo not given)	inactive: 0.24%	–
CC(C)S(=O)(=O)c1oc(-c2ccc(F)cc2)nc1S(=O)(=O)c1ccccc1	inactive: -95.7%	–
CN1CCN(c2oc(/C=C/c3ccc(F)cc3)nc2C#N)CC1	inactive: -13.1%	–
CCOC(=O)c1ccccc1NS(=O)(=O)c1ccc(N2CCCCS2(=O)=O)cc1	inactive: -24.3%	–
COc1cc(NC(=O)c2nn(-c3ccc(C)cc3)c(=O)c3c2c2ccccc2n3C)cc(OC)c1OC	inactive: 0.364%	–
CCc1nn(CC(=O)NC(C)CC)c(=O)c2cc3c(OC)cccc3n12 (stereo not given)	inactive: -5.28%	–
CC[N+](C)(CC)CCOC(=O)C1c2ccccc2Oc2ccccc21	inactive: -12.3%	–
CCOc1ccc(-n2nc(CO)c(C(=O)NCc3cccnc3)n2)cc1	inactive: -7.72%	–
COc1ccc(-c2noc(-c3ccc(N4CCN(c5ccc(OC)cc5)CC4)c([N+](=O)[O-])c3)n2)cc1	inactive: -0.585%	–
COc1cccc(N2CCN(C(=O)c3cc4c(=O)n(Cc5ccccc5)ccc4nc3C)CC2)c1	inactive: -19.6%	–
Cc1cccn2c(=O)c(C(=O)NCc3ccccc3Cl)c(O)nc12	inactive: 9.5%	–
Cc1ccc(C(=O)c2ccc(CC(=O)O)n2C)cc1	inactive: -9.09%	–
COC(=O)c1c(NC(=O)Cc2coc3ccc(C)cc23)sc2c1CCC2	inactive: -8.84%	–
Cc1cccc(NC(=O)c2sc3nc4c(cc3c2N)CCCCCC4)c1C	inactive: -27.6%	–
COc1ccc(-n2nc(C(=O)Nc3ccc(Cl)cn3)c3c4ccccc4n(C)c3c2=O)cc1Cl	inactive: -15.5%	–
CC(C)C1C(=O)Nc2ccc(S(=O)(=O)NCc3ccc(Cl)cc3)cc21 (stereo not given)	inactive: -43.3%	–
COc1ccc(C2C(C(N)=O)=C(C)Nc3nc(CCCO)nn32)cc1 (stereo not given)	inactive: 23.1%	–
Cc1ccc(CCNC(=O)c2cc(Nc3ccc(C)c(C)c3)nc3ccccc23)cc1	inactive: -8.53%	–

SMILES	activity change, positive = activation	Potency
Cc1ccc(NC(=O)CSc2c3c(nc4ccccc24)CCCC3)cc1F	inactive: -30.8%	–
O=C(c1ccccc1Cl)N(Cc1ccco1)Cc1ccco1	inactive: 0.0891%	–
Cc1ccccc1Nc1c(-c2cccc(N(C)C)c2)nc2ccc(Br)cn12	–	active: 11.2 µM
Cc1cc(F)ccc1-n1nnc(C(N)=O)c1C	inactive: -21.8%	–
CC(=O)c1cccc(NC(=O)c2c(-c3ccccc3)c(-c3ccccc3)nn(C)c2=O)c1	inactive: -25.6%	–
CCCCN(CCCC)CCCOC(=O)c1ccc(N)cc1	inactive: -7.83%	–
Cc1cc(C(F)(F)F)nn1-c1nc(-c2ccccc2)cc(C(F)(F)F)n1	inactive: 2.95%	–
CCOC(=O)c1ccc(NC(=O)CC2C(=O)N(c3ccc(C)cc3)C(=O)N2C2CCCCC2)cc1 (stereo not given)	inactive: -8.4%	–
Cc1cc(=O)n(CC(=O)Nc2ccc([N+](=O)[O-])cc2)c(-n2nc(C)cc2C)n1	inactive: -17.8%	–
Cc1[nH]c2ccccc2c1C(c1ccccc1)c1cccs1 (stereo not given)	inactive: -31.2%	–
Cc1ccccc1NC(=O)Cn1c(=O)n(CCc2ccccc2)c(=O)c2sc3ccccc3c21	inactive: -4.79%	–
COc1ccc(CCN2C(=O)c3[nH]nc(-c4ccccc4O)c3C2c2cccc(OC)c2)cc1 (stereo not given)	inactive: -32.9%	–
CCOC(=O)C1(C)C=C(Nc2ccc(Br)cc2)C(=O)N1c1ccccc1 (stereo not given)	inactive: 1.79%	–
CCn1c(=NC(=O)c2ccc3c(c2)OCCO3)sc2c(C)ccc(OC)c21	inactive: -45.2%	–
CCCCCCCCCCCCCCCCCCNC(=O)OC1CCN(C(=O)OC[C@H](COC(=O)N(Cc2cccc[n+]2CC)C(=O)c2ccccc2OC)OC)CC1	inactive: -38.8%	–
Cc1ccc(NC(=O)CSc2nc(C)c(Cc3ccccc3)c(=O)[nH]2)cc1C	inactive: -17.1%	–
Cc1nn(C(C)C(=O)NC2CCCCC2)c(=O)c2c1sc1ccccc12 (stereo not given)	inactive: -5.43%	–
Cc1ccc(-c2nnc(Nc3ccc(Br)cc3)c3ccccc23)cc1S(=O)(=O)N1CCN(C)CC1	inactive: -40.7%	–
COc1ccc(CC(=O)NC2CC(=O)N(c3cccc(F)c3)C2)cc1 (stereo not given)	inactive: 19%	–
Cc1ccc(OCC(=O)Nc2ccc(OCc3cc(=O)n4cccc(C)c4n3)cc2)cc1C	inactive: -8.78%	–
COc1ccc(CCNC(=O)Cc2c(C)c3c(cc(C)c4c(C)coc43)oc2=O)cc1OC	inactive: -12.2%	–
CCN(C(=O)C(=O)Nc1ccc2nc3n(c(=O)c2c1)CCCCC3)c1ccc(F)cc1	inactive: -1.5%	–
COc1ccc2c(CNCc3ccc(C)o3)c(C(=O)O)n(Cc3ccccc3C)c2c1	inactive: -3.87%	–
CCN(c1ccccc1)C(CNS(=O)(=O)c1ccccc1)c1ccccc1 (stereo not given)	inactive: -36.2%	–
COc1ccc(CCNC(=O)c2ccc3c(c2)CCN3S(C)(=O)=O)cc1	inactive: -8.51%	–
